# Assay results: publication PMC12136788
# Some of the results follow.
# T1: UNK ZnF1-3 (human, UniProt Q9C0B0 31-174)
# T1 sequence: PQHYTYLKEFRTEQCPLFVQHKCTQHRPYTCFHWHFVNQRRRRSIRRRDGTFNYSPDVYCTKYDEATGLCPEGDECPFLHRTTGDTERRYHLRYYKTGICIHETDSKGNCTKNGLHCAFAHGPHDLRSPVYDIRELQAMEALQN
# B1: chrX:16871948:16871949:-_ENSG00000102054_ENST00000404022|hu_hu|FALSE|FALSE (ssRNA)
# RNA: GGGAGUUCUACAGUCCGACGAUCAGUAAAGAUGGCUUUAGCAUCCACAAUUUUGCCUUCUUUUGGUCCUGCGUUUAUAUCCCACAGACAAACAGUAUGGUCAUCAGAUGCACUUAGGAGAUGUCCACUCAAAUUUGAAUUCCACAACAGAGGAUUGAGCAUCA
# B2: chr1:244855233:244855234:+_ENSG00000121644_ENST00000302550|hu_mus|hu_hu_hu_mus_True|38_48 (ssRNA)
# RNA: GGGAGUUCUACAGUCCGACGAUCCAUCAGAUGGUAGGCGUUGCCCUUAUACUCUUUCCCCAGUUCUUCUACAAUUUUCUCUAUAUCAUCUUCUAGGAAGUCCGUGCUUCCUAGAACAACAGCUUCUUUAAAUUUAAAUGUUUCCAACAGAGGAUUGAGCAUCA
# B3: chr6:47494509:47494510:-_ENSMUSG00000029687_ENSMUST00000081721|mus_mus|motif|central (ssRNA)
# RNA: GGGAGUUCUACAGUCCGACGAUCCCCAAUUAGCCUAGCAAUGGCACAAAAGUUAUCGUAGUAAGUACCAAUGAGGACUCGGAACAUGGAGGCUUCAGCACCACUCCACUCCACAUUCUCAGGAGGUUCAAUAUUUGGCUUCAUCAACAGAGGAUUGAGCAUCA
# B4: chr9:113799110:113799111:+_ENSMUSG00000033392_ENSMUST00000111838|mus_mus|motif|central (ssRNA)
# RNA: GGGAGUUCUACAGUCCGACGAUCCAGCAGAACAAACAACCAAUCUUGAAGAUCAUCUUUGUGGACUUGUAUGAAAUCGGCGGGAGUCUCCAAGAACAUGCUGAACACCUUGCCAUGAGGAUCUGCAAACAUUCUUGUGAAAAUCAACAGAGGAUUGAGCAUCA
# B5: chr1:76259871:76259872:+_ENSG00000137955_ENST00000319942|hu_hu|FALSE|FALSE (ssRNA)
# RNA: GGGAGUUCUACAGUCCGACGAUCAUCCACCAUAUCUCCUGGCCUGUCUGCAAAUCCCCCCGUUUCUUCAUCUUGACAUGCUAAAAUGAAAUUACGCAGUUUCUCUCUAUCAAUCCAAUGAAGUCUUCCAAUUAUCUUUAGGGACAACAGAGGAUUGAGCAUCA
# B6: 111663246_111667414_605_CDS_ENSG00000156171_ENST00000539140|human|control|control (ssRNA)
# RNA: GGGAGUUCUACAGUCCGACGAUCCAUAUAUAAUGAGCCCAUACCAAAGGUAAGCACAGCUCCACUUACAUGUGCAGCAAAAAGGGUUGUUUUCUGGAAGUUUGCCACAAUAGAAAGUCCUAAACAACUCAGUAUUCCAAGUACCAACAGAGGAUUGAGCAUCA
# B7: chr5:64942916:64942917:+_ENSG00000113597_ENST00000231526|hu_mus|FALSE|FALSE (ssRNA)
# RNA: GGGAGUUCUACAGUCCGACGAUCAGCAUUGGAGGCUGAAAGGUUUAAACGCUGAGAACUCGUCUGCAGAUCCGCCUUCACCAAUAUAUCUUUUACAACUUGAUUGCUGUCAUUGUGAACACUGAUAUAACUGGAAAAGGUCUCCAACAGAGGAUUGAGCAUCA
# B8: chr4:174298412:174298413:+_ENSG00000164105_ENST00000296504|hu_hu|FALSE|FALSE (ssRNA)
# RNA: GGGAGUUCUACAGUCCGACGAUCAUUCUUCACUGAGUAGAUGAAAUAUGUUAAGGUGUCUUUUUCAUUCACUGGAAUAGACCUAAAGUGGCAACCAACUAUCUCAACAAGUUGUGCUUUAUUAAGUCCUGGUCUGGUUGGUAGCAACAGAGGAUUGAGCAUCA
# B9: chr3:150289932:150289933:+_ENSG00000144895_ENST00000460851|hu_hu|hu_hu_hu_mus_False|58_58 (ssRNA)
# RNA: GGGAGUUCUACAGUCCGACGAUCCUUGUAGUUUUUAACAUCCCAUACUUCCAUUUGUCCUCGAAGAUUUCCAAAUCCAGCUAAUACUAAUAUAUGUCCAUGAGGGCUAUAGAAGGCUGCGUUGCGAGGACCAGUCCCAAAGUCCAACAGAGGAUUGAGCAUCA
# B10: chr1:163112212:163112213:-_ENSG00000143248_ENST00000313961|hu_hu|hu_hu_hu_mus_False|38_88 (ssRNA)
# RNA: GGGAGUUCUACAGUCCGACGAUCUUUUAUUAUCAGUAAGAGUGAGUCACAUAGUACGCAAAGUAUUGGAUACAAUAAUCAGGAAACAAACACUAUUUUUCUUGAAUUUAAAACUUUAUGAGCGAAGUGCUGGCACAGGACUUACAACAGAGGAUUGAGCAUCA
# B11: 30351319_30351439_1352_3pUTR_ENSMUSG00000022533_ENSMUST00000100013|mouse|control|control (ssRNA)
# RNA: GGGAGUUCUACAGUCCGACGAUCCUAACUACUAUGGCUUUCACAAGUUCUCCAGUGUAGAAACGGGUCUGAAUAACAGUCGUCCCACAAAACAAAGUGUGCCGCUUGUGUGUCUCUGGGCUGUACUGCUCCUCCCCCAUUCCUCAACAGAGGAUUGAGCAUCA
# B12: chr13:55803104:55803105:+_ENSMUSG00000045767_ENSMUST00000057844|mus_mus|FALSE|FALSE (ssRNA)
# RNA: GGGAGUUCUACAGUCCGACGAUCAGCACAGCACCACUGAGUACAUGUGCGGCAAGCGGAGGGAAGGGGAUGCGUGUGGGAAGGGCAAGAAGAAAUGACAAGGUACAAAGCCAGGAAUGAAAUCAAACUCAAAAGGAUGCCGUGCAACAGAGGAUUGAGCAUCA
# B13: 144434962_144435082_407_5pUTR_ENSG00000153147_ENST00000283131|human|control|control (ssRNA)
# RNA: GGGAGUUCUACAGUCCGACGAUCGACAUGAUGUUCCGUCUGCGUCACCCGCUGCUGCCAGAGGCCCGAGUCCGGCGGGGAUGGACGGGGAGGCCUAGGCCUGGAUGCUACGUCGCAAUAAACUGGUGGAGGAGCGAGACUCCCCAACAGAGGAUUGAGCAUCA
# B14: chr19:16212804:16212805:+_ENSG00000167460_ENST00000300933|hu_mus|hu_hu_hu_mus_False|28_68 (ssRNA)
# RNA: GGGAGUUCUACAGUCCGACGAUCAACAAUUCUGGAGUGAAGGAAAGAUGUAACAUGGAACAGCAUUCCAUCUAUUACAGAAGGCACAUGGGCAACAAUGAUCACCCCCCAAGCAUUGCUUGGAAUGCUUAAAGACAAUCUGUUCAACAGAGGAUUGAGCAUCA
# Target: T1, UNK ZnF1-3
# Experiment: nsRBNS (natural sequence RNA bind-n-seq); RBNS binding buffer (assumed for nsRBNS): 25 mM Tris pH 7.5, 150 mM KCl, 3 mM MgCl2, 0.01% Triton X-100, 500 ug/ml BSA, 20 U/ml SUPERase-In, 4 C; UNK is unkempt and MSI1 is Musashi-1; names of the RNAs are library labels; protein concentration not given here; high values mean tight binding
row,Binder,binding signal [enrichment R]
1,B1,1.41
2,B2,1.11
3,B3,1.21
4,B4,1.41
5,B5,0.937
6,B6,0.722
7,B7,1.54
8,B8,0.889
9,B9,1.21
10,B10,1.36
11,B11,0.749
12,B12,2
13,B13,1.12
14,B14,0.962
